# This is one part of the list.
# B1: SpnanA (Streptococcus pneumoniae), P62575 (protein)
# chain: MVIEKEDVETNASNGQRVDLSSELDKLKKLENATVHMEFKPDAKAPAFYNLFSVSSATKKDEYFTMAVYNNTATLEGRGSDGKQFYNNYNDAPLKVKPGQWNSVTFTVEKPTAELPKGRVRLYVNGVLSRTSLRSGNFIKDMPDVTHVQIGATKRANNTVWGSNLQIRNLTVYNRALTPEEVQKRS
# Legend:
# Assay in all cases: glycan array binding signal (z-score within array); higher = stronger binding
# Conditions in all cases: glycan notation: IUPAC condensed, linker removed
# [1] = molecular target: Neu5Ac(a2-3)Gal(b1-3)GalNAc
# How it was run: (§1)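 The binding signal is a Z-score computed within each array. Data were drawn from 3228 arrays in the Consortium for Functional Glycomics database, restricted to those with a known protein sequence. Scores were averaged over arrays of the same protein sequence at different concentrations or buffers, and over linkers, and negative values can be taken as non-binding.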
# [2] = molecular target: Neu5Ac(a2-3)Gal(b1-3)GalNAc(b1-3)Gal(a1-4)Gal(b1-4)Glc
# How it was run: as §1
# [3] = molecular target: Neu5Ac(a2-3)Gal(b1-3)GalNAc(b1-4)[Neu5Ac(a2-3)]Gal(b1-4)Glc
# How it was run: as §1
# [4] = molecular target: Neu5Ac(a2-3)Gal(b1-3)GalNAc(b1-4)[Neu5Ac(a2-8)Neu5Ac(a2-3)]Gal(b1-4)Glc
# How it was run: as §1
# [5] = molecular target: Neu5Ac(a2-3)Gal(b1-3)GalNAc6S
# How it was run: as §1
# [6] = molecular target: Neu5Ac(a2-3)Gal(b1-3)GlcNAc
# How it was run: as §1
# [7] = molecular target: Neu5Ac(a2-3)Gal(b1-3)GlcNAc(b1-2)Man(a1-3)[GlcNAc(b1-4)][Neu5Ac(a2-3)Gal(b1-3)GlcNAc(b1-2)Man(a1-6)]Man(b1-4)GlcNAc(b1-4)GlcNAc
# How it was run: as §1
# [8] = molecular target: Neu5Ac(a2-3)Gal(b1-3)GlcNAc(b1-2)Man(a1-3)[Neu5Ac(a2-3)Gal(b1-3)GlcNAc(b1-2)Man(a1-6)]Man(b1-4)GlcNAc(b1-4)GlcNAc
# How it was run: as §1
# [9] = molecular target: Neu5Ac(a2-3)Gal(b1-3)GlcNAc(b1-3)Gal(b1-3)GlcNAc
# How it was run: as §1
# [10] = molecular target: Neu5Ac(a2-3)Gal(b1-3)GlcNAc(b1-3)Gal(b1-4)GlcNAc
# How it was run: as §1
# [11] = molecular target: Neu5Ac(a2-3)Gal(b1-3)GlcNAc(b1-3)GalNAc
# How it was run: as §1
# [12] = molecular target: Neu5Ac(a2-3)Gal(b1-3)GlcNAc(b1-6)GalNAc
# How it was run: as §1
# [13] = molecular target: Neu5Ac(a2-3)Gal(b1-3)GlcNAc6S
# How it was run: as §1
# [14] = molecular target: Neu5Ac(a2-3)Gal(b1-3)[Fuc(a1-4)]GlcNAc
# How it was run: as §1
# [15] = molecular target: Neu5Ac(a2-3)Gal(b1-3)[Fuc(a1-4)]GlcNAc(b1-3)Gal(b1-3)[Fuc(a1-4)]GlcNAc
# How it was run: as §1
# [16] = molecular target: Neu5Ac(a2-3)Gal(b1-3)[Fuc(a1-4)]GlcNAc(b1-3)Gal(b1-4)[Fuc(a1-3)]GlcNAc
# How it was run: as §1
# [17] = molecular target: Neu5Ac(a2-3)Gal(b1-3)[Neu5Ac(a2-3)Gal(b1-4)]GlcNAc
# How it was run: as §1
# [18] = molecular target: Neu5Ac(a2-3)Gal(b1-3)[Neu5Ac(a2-6)]GalNAc
# How it was run: as §1
# [19] = molecular target: Neu5Ac(a2-3)Gal(b1-3)[Neu5Ac(a2-6)]GlcNAc(b1-3)[Fuc(a1-3)[Gal(b1-4)]GlcNAc(b1-6)]Gal(b1-4)Glc
# How it was run: as §1
# Neu5Ac(a2-3)Gal(b1-4)Glc = molecular target: Neu5Ac(a2-3)Gal(b1-4)Glc
# How it was run: as §1
# [20] = molecular target: Neu5Ac(a2-3)Gal(b1-4)GlcNAc
# How it was run: as §1
# [21] = molecular target: Neu5Ac(a2-3)Gal(b1-4)GlcNAc(b1-2)Man
# How it was run: as §1
# [22] = molecular target: Neu5Ac(a2-3)Gal(b1-4)GlcNAc(b1-2)Man(a1-3)[GlcNAc(b1-2)Man(b1-4)GlcNAc(b1-2)Man(a1-6)]Man(b1-4)GlcNAc(b1-4)GlcNAc
# How it was run: as §1
# [23] = molecular target: Neu5Ac(a2-3)Gal(b1-4)GlcNAc(b1-2)Man(a1-3)[Neu5Ac(a2-3)Gal(b1-4)GlcNAc(b1-2)Man(a1-6)]Man(b1-4)GlcNAc(b1-4)[Fuc(a1-6)]GlcNAc
# How it was run: as §1
# [24] = molecular target: Neu5Ac(a2-3)Gal(b1-4)GlcNAc(b1-2)Man(a1-3)[Neu5Ac(a2-6)Gal(b1-4)GlcNAc(b1-2)Man(a1-6)]Man(b1-4)GlcNAc(b1-4)GlcNAc
# How it was run: as §1
# [25] = molecular target: Neu5Ac(a2-3)Gal(b1-4)GlcNAc(b1-2)[Neu5Ac(a2-3)Gal(b1-4)GlcNAc(b1-6)]Man(a1-6)[Neu5Ac(a2-3)Gal(b1-4)GlcNAc(b1-2)Man(a1-3)]Man(b1-4)GlcNAc(b1-4)GlcNAc
# How it was run: as §1
# [26] = molecular target: Neu5Ac(a2-3)Gal(b1-4)GlcNAc(b1-3)Gal
# How it was run: as §1
# [27] = molecular target: Neu5Ac(a2-3)Gal(b1-4)GlcNAc(b1-3)Gal(b1-3)GlcNAc
# How it was run: as §1
# [28] = molecular target: Neu5Ac(a2-3)Gal(b1-4)GlcNAc(b1-3)Gal(b1-4)GlcNAc
# How it was run: as §1
# [29] = molecular target: Neu5Ac(a2-3)Gal(b1-4)GlcNAc(b1-3)Gal(b1-4)GlcNAc(b1-3)Gal(b1-4)GlcNAc
# How it was run: as §1
# [30] = molecular target: Neu5Ac(a2-3)Gal(b1-4)GlcNAc(b1-3)Gal(b1-4)[Fuc(a1-3)]GlcNAc
# How it was run: as §1
# [31] = molecular target: Neu5Ac(a2-3)Gal(b1-4)GlcNAc(b1-3)GalNAc
# How it was run: as §1
# [32] = molecular target: Neu5Ac(a2-3)Gal(b1-4)GlcNAc(b1-3)[Neu5Ac(a2-3)Gal(b1-4)GlcNAc(b1-6)]GalNAc
# How it was run: as §1
# [33] = molecular target: Neu5Ac(a2-3)Gal(b1-4)GlcNAc(b1-6)GalNAc
# How it was run: as §1
# [34] = molecular target: Neu5Ac(a2-3)Gal(b1-4)GlcNAc(b1-6)[Gal(b1-3)]GalNAc
# How it was run: as §1
# [35] = molecular target: Neu5Ac(a2-3)Gal(b1-4)GlcNAc(b1-6)[Neu5Ac(a2-3)Gal(b1-3)]GalNAc
# How it was run: as §1
# [36] = molecular target: Neu5Ac(a2-3)Gal(b1-4)GlcNAc6S
# How it was run: as §1
# [37] = molecular target: Neu5Ac(a2-3)Gal(b1-4)[Fuc(a1-3)]GlcNAc
# How it was run: as §1
# [38] = molecular target: Neu5Ac(a2-3)Gal(b1-4)[Fuc(a1-3)]GlcNAc(b1-3)Gal
# How it was run: as §1
# [39] = molecular target: Neu5Ac(a2-3)Gal(b1-4)[Fuc(a1-3)]GlcNAc(b1-3)Gal(b1-4)GlcNAc
# How it was run: as §1
# [40] = molecular target: Neu5Ac(a2-3)Gal(b1-4)[Fuc(a1-3)]GlcNAc(b1-3)Gal(b1-4)[Fuc(a1-3)]GlcNAc(b1-3)Gal(b1-4)[Fuc(a1-3)]GlcNAc
# How it was run: as §1
# [41] = molecular target: Neu5Ac(a2-3)Gal(b1-4)[Fuc(a1-3)]GlcNAc(b1-3)GalNAc
# How it was run: as §1
# [42] = molecular target: Neu5Ac(a2-3)Gal(b1-4)[Fuc(a1-3)]GlcNAc(b1-6)[Gal(b1-3)]GalNAc
# How it was run: as §1
# [43] = molecular target: Neu5Ac(a2-3)Gal(b1-4)[Fuc(a1-3)]GlcNAc(b1-6)[Neu5Ac(a2-3)Gal(b1-3)]GalNAc
# How it was run: as §1
# [44] = molecular target: Neu5Ac(a2-3)Gal(b1-4)[Fuc(a1-3)]GlcNAc6S
# How it was run: as §1
binder,measurement,setting,value
B1,glycan array binding signal (z-score),[1],1.42
same,glycan array binding signal (z-score),[2],-0.024
same,glycan array binding signal (z-score),[3],1.27
same,glycan array binding signal (z-score),[4],-0.157
same,glycan array binding signal (z-score),[5],3.01
same,glycan array binding signal (z-score),[6],3.08
same,glycan array binding signal (z-score),[7],-0.212
same,glycan array binding signal (z-score),[8],1.09
same,glycan array binding signal (z-score),[9],1.04
same,glycan array binding signal (z-score),[10],1.17
same,glycan array binding signal (z-score),[11],0.475
same,glycan array binding signal (z-score),[12],1.62
same,glycan array binding signal (z-score),[13],-0.073
same,glycan array binding signal (z-score),[14],1.65
same,glycan array binding signal (z-score),[15],0.147
same,glycan array binding signal (z-score),[16],0.04
same,glycan array binding signal (z-score),[17],6.34
same,glycan array binding signal (z-score),[18],3.24
same,glycan array binding signal (z-score),[19],-0.083
same,glycan array binding signal (z-score),Neu5Ac(a2-3)Gal(b1-4)Glc,0.479
same,glycan array binding signal (z-score),[20],0.992
same,glycan array binding signal (z-score),[21],2.64
same,glycan array binding signal (z-score),[22],0.252
same,glycan array binding signal (z-score),[23],0.895
same,glycan array binding signal (z-score),[24],0.022
same,glycan array binding signal (z-score),[25],0.022
same,glycan array binding signal (z-score),[26],2.6
same,glycan array binding signal (z-score),[27],0.141
same,glycan array binding signal (z-score),[28],0.146
same,glycan array binding signal (z-score),[29],1.52
same,glycan array binding signal (z-score),[30],-0.236
same,glycan array binding signal (z-score),[31],-0.047
same,glycan array binding signal (z-score),[32],0.179
same,glycan array binding signal (z-score),[33],-0.064
same,glycan array binding signal (z-score),[34],-0.172
same,glycan array binding signal (z-score),[35],0.233
same,glycan array binding signal (z-score),[36],3.89
same,glycan array binding signal (z-score),[37],0.549
same,glycan array binding signal (z-score),[38],0.859
same,glycan array binding signal (z-score),[39],0.351
same,glycan array binding signal (z-score),[40],-0.268
same,glycan array binding signal (z-score),[41],0.821
same,glycan array binding signal (z-score),[42],0.023
same,glycan array binding signal (z-score),[43],-0.011
same,glycan array binding signal (z-score),[44],1.2

# From the supplement of paper PMC8728848
